Laboratory results from PubChem BioAssay AID686978 (National Center for Advancing Translational Sciences (NCATS), 2013).
In all, about 420,000 compounds went through this assay and about 64,000 (15%) were called active. The shares of active, inactive and inconclusive entries below differ from those in the screen. The call rests on the fitted dose curve; in most records, active means well fitted inhibition curve with a large enough effect; inconclusive means small, poorly fitted or top-dose-only effect; inactive means flat fitted curve, though single readings scatter. No potency is given beside an inconclusive call; the fits are too rough. Peptide text beside a SMILES is read from it. * marks the point of attachment. Boc = CC(C)(C)OC(=O)*
On the % scale 0 is the no-effect control and ±100 the full control effect; potency means the concentration at half of the fitted maximal effect; tags describe the fitted curve by direction and shape.

Assay: qHTS for Inhibitors of human tyrosyl-DNA phosphodiesterase 1 (TDP1): qHTS in cells in absence of CPT; further: nearly all actives have a fitted effect of over 55% in size
Settings: DT40 Tdp1-/- hTDP1 cells, no CPT, ATP luminescence, 48 h; activity change, negative = growth inhibition: at 46.2 µM (top of the series)
Outline: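 Chicken DT40 Tdp1-/- cells complemented with human TDP1, screened without camptothecin (DMSO vehicle only), 400 cells/well. Compounds pin-transferred, cells incubated at 37 °C for at least 48 hr. Growth read as ATP-dependent luminescence (CellTiter-Glo, 30 min at RT).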
In the case of `Cc1c(C(=O)C(=O)N2CCN(Cc3ccc4c(c3)OCO4)CC2)c2ccccc2n1C`, the Potency is reported as inconclusive [inhibitor, single point]. In the case of `O=C(N/N=C/c1cccc(Oc2ccc([N+](=O)[O-])cc2[N+](=O)[O-])c1)c1cncc(Br)c1`, the Potency is reported as active: 18.4 µM. With `Cc1cccc(N2CCN(C(=O)c3ccc(Cl)c(NC4=NC5CS(=O)(=O)CC5S4)c3)CC2C)c1` (centres undefined) the Potency was inconclusive [inhibitor, full curve]. With `N#Cc1c(NC(=O)COC(=O)c2nccnc2N)sc2c1CCCC2` the Potency was “inactive”. With `Cc1noc(C)c1-c1ccc2ncnc(Nc3ccc(F)cc3)c2c1` the Potency was inconclusive [inhibitor, single point]. For `O=C(CCN1C(=O)/C(=C/c2ccccc2Cl)SC1=S)NCCCN1CCOCC1`, the Potency was inconclusive [inhibitor, single point]. With `O=C(c1cn(C2CCCN(Cc3cccc(Oc4ccccc4)c3)C2)nn1)N1CCCC1` (centres undefined) the Potency was inconclusive [inhibitor, single point]. With `CC(C(=O)O)c1ccc(C(=O)c2ccccc2)s1` (centres undefined) the Potency was inconclusive [inhibitor, single point]. With `Cc1nc(NC(=O)CSc2nc3ccccc3s2)sc1C(=O)N(C)C` the Potency was inconclusive [inhibitor, single point]. In the case of `CCCCN(C)C(=O)c1nc2ccccn2c1CN1CCC[C@H]1C(=O)OC`, the Potency is reported as inconclusive [inhibitor, single point]. With `Cc1ccccc1-c1cnc(C(O)c2ccc(Cl)cc2C)[nH]1` (centres undefined) the Potency was inconclusive [inhibitor, partial curve]. In the case of `CCOc1cc(NC(=O)c2ccco2)c(OCC)cc1NC(=O)c1ccco1`, the Potency is reported as active: 2.91 µM. In the case of `COc1cc(C(=O)NC2CCN(CC(=O)Nc3cccc(C)c3C)CC2)cc(OC)c1OC`, the Potency is reported as inconclusive [inhibitor, single point]. With `CCCCn1c(SCC(N)=O)nc2sc3c(c2c1=O)CCC3` the Potency was “inactive”. With `CC(=O)c1sc(NC(=O)c2ccc(COc3ccccc3Cl)o2)nc1C` the activity change, negative = growth inhibition was inconclusive: -30.4% [inhibitor]. With `CCCNc1nc(Nc2ccc(C)cc2)nc(N2CCCC2)n1` the Potency was active: 20.6 µM. For `CCCC1CCC(c2ccc(OCC)cc2)=CC1=O` (centres undefined), the Potency was inconclusive [inhibitor, single point]. For `COC(=O)c1cccc(NC(=S)Nc2cc(Cl)ccc2OC)c1`, the Potency was inconclusive [inhibitor, single point]. For `Cc1cc(C)cc(NC(=O)OCCN2CCN(Cc3ccccc3)CCC2=O)c1`, the Potency was active: 23.1 µM. In the case of `CC(C)(C)[C@H]1C=C(C(N)=O)O[C@@H](OCc2ccc(CO)cc2)C1`, the Potency is reported as “inactive”. In the case of `CC1Oc2ccccc2C=C1/C=N/Nc1ccc(C(=O)O)cc1` (centres undefined), the Potency is reported as inconclusive [inhibitor, single point]. In the case of `Cn1c(N)c(C(=O)COC(=O)Cc2c(F)cccc2Cl)c(=O)n(C)c1=O`, the Potency is reported as “inactive”. In the case of `CC(=O)Nc1c(Br)cc2c(c1Br)Cc1cc([N+](=O)[O-])ccc1-2`, the Potency is reported as inconclusive [inhibitor, partial curve]. In the case of `NC(=O)c1ccsc1NC(=O)CSc1nnc(C2CC2)n1Cc1ccccc1`, the Potency is reported as inconclusive [inhibitor, single point]. In the case of `CC1Cc2cc(/C(O)=C3/C(=O)C(=O)N(CCN4CCOCC4)C3c3ccc([N+](=O)[O-])cc3)ccc2O1` (centres undefined), the Potency is reported as “inactive”. For `O=C(O)CCCC[C@@H]1SC[C@H]2NC(=O)N[C@@H]12`, the Potency was “inactive”. In the case of `O=C(CSc1nc2cc(Cl)ccc2s1)c1ccco1`, the Potency is reported as inconclusive [inhibitor, partial curve]. For `Cn1c(NC(=O)c2ccc(F)cc2)nc2ccccc21`, the Potency was inconclusive [inhibitor, single point]. With `CN(C)c1ccc(S(=O)(=O)N2CCCCC2)cc1NC(=O)C1=NN(c2ccccc2)C(=O)CC1` the Potency was inconclusive [inhibitor, partial curve]. For `COc1ccccc1CN1CCC2(CC1)CCN(C(=O)c1cccc(F)c1)CC2`, the Potency was “inactive”. For `CCOc1ccc(OCC)c(NC(=O)CCc2nc3cccnc3n2Cc2cccs2)c1`, the Potency was active: 16.4 µM. For `COc1cccc(NS(=O)(=O)c2ccc3[nH]cc(C(=O)NC4CC4)c(=O)c3c2)c1`, the Potency was inconclusive [inhibitor, single point]. For `Cc1cc(C(=O)NCC2CCC3(CCN(Cc4ccc(F)cc4)CC3)O2)n(C)n1` (centres undefined), the Potency was inconclusive [inhibitor, single point]. With `CCCCNC(=O)CCCn1c(=O)c2ccccc2n(Cc2c(C)cc(C)cc2C)c1=O` the Potency was “inactive”. With `CN(C)c1ccc(CNC(=O)c2cnc3sc(N4CCCCCC4)nn3c2=O)cc1` the Potency was inconclusive [inhibitor, single point]. With `COC(=O)C1=C(C)N(Cc2ccccc2)C(=O)N[C@H]1c1cccc(C(F)(F)F)c1` the Potency was inconclusive [inhibitor, single point]. With `CCC(C)C(NC(=O)OC(C)(C)C)C(=O)NC(C(=O)N1CCCC1C(N)=O)C(C)CC` (stereo not drawn) (Boc-Ile-Ile-Pro-NH2; configuration not given here) the Potency was inconclusive [inhibitor, single point]. For `CCOC(=O)c1cccc(NC(=O)CC2C(=O)N(c3ccc(C)cc3)C(=O)N2Cc2cccc(OC)c2)c1` (centres undefined), the Potency was inconclusive [inhibitor, single point]. In the case of `COc1cc(Cl)c(C)cc1NC(=O)CSc1nc2c(c(=O)[nH]1)CCCC2`, the Potency is reported as inconclusive [inhibitor, single point]. With `COc1ccc(Cl)cc1-c1cc(C(=O)Nc2ccccc2)[nH]n1` the Potency was inconclusive [inhibitor, single point]. For `Cn1c(=O)c([N+](=O)[O-])c(NCCc2ccccc2)c2ccccc21`, the Potency was active: 16.4 µM. With `CCCCN(C=O)c1c(CC)nc2ccc(C(=O)NCc3ccc4c(c3)OCO4)cn12` the Potency was inconclusive [inhibitor, single point]. With `Cn1c(=O)n(C)c2cc(S(=O)(=O)Nc3ccccc3)ccc21` the activity change, negative = growth inhibition was inconclusive: -32.9% [inhibitor]. In the case of `Fc1ccc2c(-c3cccc(C(F)(F)F)c3)c(-c3ccccc3)ncc2c1`, the Potency is reported as active: 14.6 µM. In the case of `COc1ccc([N+](=O)[O-])cc1N(CC(O)CN(CC(C)C)CC(C)C)S(=O)(=O)c1ccccc1` (centres undefined), the Potency is reported as active: 20.6 µM. With `CC(C)CNC(=O)c1oc2ccccc2c1COc1ccccc1` the Potency was inconclusive [inhibitor, single point]. In the case of `N#Cc1ccc(-c2nc3ccc(Cl)cn3c2Cc2ccsc2)cc1`, the Potency is reported as inconclusive [inhibitor, partial curve]. With `COc1cc(CCC(=O)Nc2ccc(S(=O)(=O)N3CCCC3)cc2)cc(OC)c1OC` the Potency was inconclusive [inhibitor, single point]. With `O=C1CC(c2cccc(Br)c2)C2=C(CCCC2=O)N1` (centres undefined) the Potency was “inactive”. With `CCCN1CCC(=O)N(CCSc2ccc(OC)cc2)CC1` the Potency was active: 5.8 µM. With `Cc1cc(Cl)c2oc(C(=O)NCC(C)(C)N3CCOCC3)c(C)c2c1` the Potency was inconclusive [inhibitor, single point]. In the case of `Cc1cc(C)c(NC(=S)NCCO)c(C)c1`, the Potency is reported as “inactive”. For `COc1ccccc1N1CCN(C2CCN(C(=O)COc3cccc(C)c3)CC2)CC1`, the Potency was inconclusive [inhibitor, single point]. In the case of `CC1(C)CC(=O)C=C(c2cccc(O)c2)C1`, the Potency is reported as inconclusive [inhibitor, single point]. In the case of `O=[N+]([O-])c1ccccc1S(=O)(=O)n1nnc2ccccc21`, the Potency is reported as “inactive”. With `CN(C)CCCN(C(=O)c1ccc(S(=O)(=O)N2CCc3ccccc3C2)cc1)c1nc2c(F)cccc2s1` the Potency was inconclusive [inhibitor, single point]. In the case of `COc1cc2c(cc1OC)C(C)N(C(=O)c1cccs1)CC2` (centres undefined), the Potency is reported as inconclusive [inhibitor, single point]. With `Cc1cccc(Cc2c(C)nc3nc(SCc4ccccc4Cl)nn3c2C)c1` the Potency was active: 20.6 µM. In the case of `Cc1nnc(NC(=O)C2=COCCO2)s1`, the Potency is reported as “inactive”. For `Cc1ccc(C)c(Cn2c(=O)n(CCC(=O)NCc3ccc4c(c3)OCO4)c(=O)c3sccc32)c1`, the Potency was “inactive”. For `O=C(CC1C[C@H](C(=O)N2CCOCC2)[C@@]2(CCC3CCCC3)c3[nH]c4ccccc4c3CCN2C1=O)NCCc1ccccn1` (some centres undefined), the Potency was inconclusive [inhibitor, single point]. In the case of `O=c1[nH]c(/C(Cl)=C/c2cc(Cl)ccc2O)nc2cc(Cl)ccc12`, the Potency is reported as active: 13 µM. In the case of `O=c1cc(Cl)[nH]n(-c2ccccc2)c1=O`, the Potency is reported as “inactive”. For `CC(=O)Nc1ccc(CN2CCCCCC2)cc1`, the Potency was “inactive”. For `O=S(=O)(NCC1CCCO1)c1ccc(S(=O)(=O)N(Cc2ccc(F)cc2)C2CCCCC2)cc1` (centres undefined), the Potency was inconclusive [inhibitor, single point]. With `Cc1ccc(S(=O)(=O)N2CCN(C(=O)COC(=O)/C=C/c3ccc(F)cc3)CC2)c(C)c1` the Potency was inconclusive [inhibitor, single point]. For `Cc1ccc(C)c(N2CCN(C(=O)c3ccc4nc(-c5ccco5)c(-c5ccco5)nc4c3)CC2)c1`, the Potency was active: 23.1 µM. In the case of `O=C(c1ccc(F)cc1)N1CCC(n2nnc3ccccc32)CC1`, the Potency is reported as inconclusive [inhibitor, partial curve, poor fit]. In the case of `COC(=O)[C@]12CCCCC=C1N(Cc1ccc3c(c1)OCO3)C(=O)[C@H](CC(=O)NCCC(C)C)C2`, the Potency is reported as inconclusive [inhibitor, single point].
